From PubChem BioAssay (NCATS)
This is one part of the list. These are further read-outs of the screen, such as a control signal, another cell line or another target. No call is given for them. For part of these data: Most of these compounds were active or inconclusive in the main read-out, so they are no random draw. Words in brackets tell the shape of the fitted curve; partial curves, single points and poor fits give uncertain potencies.

Key:
[1] = qHTS drug screen for cell cycle checkpoint inhibitors in PARPi-resistant BRCA-mutant ovarian cancer cell lines. (AID 1963452); details: PEO1/OlaR viability, CellTiter-Glo luminescence, 96 h
Method in brief: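 PEO1, PEO4 and PEO1/OlaR ovarian cancer cells, 600 per well, exposed 96 h at 37C to a dilution series. Viability read by CellTiter-Glo luminescence, normalized to DMSO and empty wells; activity summarized as Z-AUC.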

[2] = qHTS for identification of novel therapeutic agents for treatment of microphthalmiaassociated transcription factor (MiT) renal cell carcinoma (RCC) (AID 1963991); details: CellTiter-Glo, 48 h; for z-score: stronger effect = lower value
Method in brief: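 Curves over 11 concentrations were fitted to CellTiter-Glo luminescence, scaled between empty wells (0%) and DMSO (100%) viability. Cells were UOK109, UOK124 and UOK145 TFE3-fusion RCC lines at 500/well, exposed 48 hours at 37 C.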

[3] = measured here: PEO1 parental viability
[4] = TFE3-RCC UOK109 viability, measured here: UOK109 Z-AUC
[5] = TFE3-RCC viability, measured here: UOK124 Z-AUC
[6] = TFE3-RCC viability, measured here: UOK124 cell viability
[7] = TFE3-RCC viability, measured here: UOK145 Z-AUC
[8] = TFE3-RCC viability, measured here: UOK145 cell viability
Tags tell the direction and shape of the fitted curve.

## Cc1cn(-c2cc(NC(=O)c3ccc(C)c(Nc4nccc(-c5cccnc5)n4)c3)cc(C(F)(F)F)c2)cn1
[1]; [3]
  AC50: 15.5 µM [falling, single point]
[1]; measured here: PEO4 viability
  AC50: 7.76 µM [falling, partial curve]
[2]; [4]
  z-score: -0.0264
[2]; [5]
  z-score: -1.01
[2]; [6]
  AC50: 7.43 µM [falling, partial curve]
[2]; [7]
  z-score: -0.445

## Cc1cc([C@@H](C)Nc2ccccc2C(=O)O)c2nc(N3CCOCC3)cc(=O)n2c1
[1]; [3]
  AC50: 13.8 µM [falling, single point]
[1]; measured here: PEO4 viability
  AC50: 11 µM [falling, partial curve]
[2]; [4]
  z-score: -1.09
[2]; [5]
  z-score: -1.98
[2]; [7]
  z-score: -1.57
[2]; [8]
  AC50: 12.1 µM [falling, partial curve]

## CCCCCCCCc1ccc(CCC(N)(CO)CO)cc1
[1]; [3]
  AC50: 17.4 µM [falling, single point]
[1]; measured here: PEO4 viability
  AC50: 21.9 µM [falling, single point]
[2]; [4]
  z-score: 0.207
[2]; [5]
  z-score: -0.429
[2]; [6]
  AC50: 16.6 µM [falling, partial curve]
[2]; [7]
  z-score: 0.469
[2]; [8]
  AC50: 23.5 µM [falling, partial curve]

## Cn1cc(-c2ccncc2)c(-c2ccc(OCc3ccc4ccccc4n3)cc2)n1
[1]; [3]
  AC50: 11 µM [falling, partial curve]
[1]; measured here: PEO4 viability
  AC50: 19.5 µM [falling, single point]
[2]; [4]
  z-score: 0.528
[2]; [5]
  z-score: 0.55
[2]; [6]
  AC50: 9.35 µM [falling, partial curve]
[2]; [7]
  z-score: 0.502

## COc1cccc2c1CCCC2CCCN1CCN(C2CCCCC2)CC1 (stereo not given)
[1]; [3]
  AC50: 15.5 µM [falling, partial curve]
[1]; measured here: PEO4 viability
  AC50: 19.5 µM [falling, partial curve, poor fit]
[2]; [4]
  z-score: 0.465
[2]; [5]
  z-score: -0.148
[2]; [6]
  AC50: 29.6 µM [falling, single point]
[2]; [7]
  z-score: 0.512
[2]; [8]
  AC50: 26.4 µM [falling, single point]

## COc1cc(N2CCC(N3CCN(C)CC3)CC2)ccc1Nc1ncnc(Nc2ccccc2S(=O)(=O)C(C)C)n1
[1]; [3]
  AC50: 15.5 µM [falling, single point]
[1]; measured here: PEO4 viability
  AC50: 19.5 µM [falling, partial curve]
[2]; [4]
  z-score: -1.65
[2]; [5]
  z-score: -0.244
[2]; [6]
  AC50: 18.7 µM [falling, partial curve]
[2]; [7]
  z-score: -0.836
[2]; [8]
  AC50: 10.5 µM [falling, full curve]

## OCCNC1CCCc2c1[nH]c1ccc(-c3ccccc3)cc21 (stereo not given)
[1]; [3]
  AC50: 19.5 µM [falling, partial curve]
[1]; measured here: PEO4 viability
  AC50: 13.8 µM [falling, partial curve]
[2]; [4]
  z-score: 0.0329
[2]; [5]
  z-score: -0.532
[2]; [6]
  AC50: 18.7 µM [falling, partial curve]
[2]; [7]
  z-score: 1.1
[2]; [8]
  AC50: 37.2 µM [falling, partial curve, poor fit]

## CC(N[C@H]1CCCC[C@H]1NC(=O)c1ccc(Cl)cc1)c1cccc2ccccc12 (stereo not given in full)
[1]; [3]
  AC50: 17.4 µM [falling, partial curve]
[1]; measured here: PEO4 viability
  AC50: 17.4 µM [falling, single point]
[2]; [4]
  z-score: -1.53
[2]; [5]
  z-score: 0.602
[2]; [6]
  AC50: 16.6 µM [falling, partial curve]
[2]; [7]
  z-score: -0.136
[2]; [8]
  AC50: 2.96 µM [falling, partial curve, poor fit]

## Cn1c(Nc2ccc(C(F)(F)F)cc2)nc2cc(Oc3ccnc(-c4ncc(C(F)(F)F)[nH]4)c3)ccc21
[1]; [3]
  AC50: 6.92 µM [falling, partial curve]
[1]; measured here: PEO4 viability
  AC50: 1.38 µM [falling, full curve]
[2]; [4]
  z-score: -0.834
[2]; [5]
  z-score: -0.0769
[2]; [6]
  AC50: 14.8 µM [falling, partial curve]
[2]; [7]
  z-score: -1.12
[2]; [8]
  AC50: 1.32 µM [falling, full curve]

## CO[C@H]1C(=O)[C@]2(C)[C@@H](OC)C[C@H]3OC[C@@]3(OC(C)=O)[C@H]2[C@H](OC(=O)c2ccccc2)[C@]2(O)C[C@H](OC(=O)[C@H](O)[C@@H](NC(=O)OC(C)(C)C)c3ccccc3)C(C)=C1C2(C)C
[1]; [3]
  AC50: 0.0098 µM [falling, full curve]
[1]; measured here: PEO4 viability
  AC50: 0.0062 µM [falling, full curve]
[2]; [4]
  z-score: -2.75
[2]; [5]
  z-score: -1.72
[2]; [6]
  AC50: 0.00187 µM [rising, full curve, poor fit]
[2]; [7]
  z-score: -2.47

## C#Cc1cccc(Nc2ncnc3cc(OCCOC)c(OCCO)cc23)c1
[1]; [3]
  AC50: 12.3 µM [falling, partial curve]
[1]; measured here: PEO4 viability
  AC50: 19.5 µM [falling, partial curve, poor fit]
[2]; [4]
  z-score: -2.87
[2]; [5]
  z-score: -0.209
[2]; [6]
  AC50: 16.6 µM [falling, partial curve, poor fit]
[2]; [7]
  z-score: -0.665
[2]; [8]
  AC50: 14.8 µM [falling, partial curve]

## Clc1ccc(COC(Cn2ccnc2)c2ccc(Cl)cc2Cl)cc1 (stereo not given)
[1]; [3]
  AC50: 13.8 µM [falling, partial curve]
[1]; measured here: PEO4 viability
  AC50: 19.5 µM [falling, partial curve]
[2]; [4]
  z-score: -0.118
[2]; [5]
  z-score: 0.178
[2]; [6]
  AC50: 37.2 µM [falling, single point]
[2]; [7]
  z-score: -0.0366

## CCc1c2c(nc3ccc(OC(=O)N4CCC(N5CCCCC5)CC4)cc13)-c1cc3c(c(=O)n1C2)COC(=O)[C@]3(O)CC
[1]; [3]
  AC50: 0.0174 µM [falling, full curve]
[1]; measured here: PEO4 viability
  AC50: 0.0616 µM [falling, full curve]
[2]; [4]
  z-score: -0.399
[2]; [5]
  z-score: -0.14
[2]; [6]
  AC50: 2.96 µM [falling, full curve]
[2]; [7]
  z-score: -0.867
[2]; [8]
  AC50: 1.32 µM [falling, full curve]

## COc1ccc(C(=O)CC2(O)C(=O)Nc3c(Cl)ccc(Cl)c32)cc1 (stereo not given)
[1]; [3]
  AC50: 1.55 µM [falling, full curve]
[1]; measured here: PEO4 viability
  AC50: 1.74 µM [falling, full curve]
[2]; [4]
  z-score: 0.0233
[2]; [5]
  z-score: -0.446
[2]; [6]
  AC50: 4.69 µM [falling, partial curve]
[2]; [7]
  z-score: 0.38
[2]; [8]
  AC50: 2.35 µM [falling, full curve]

## Cc1cc(C(C)(C)C)cc(C)c1CC1=NCCN1
[1]; [3]
  AC50: 24.5 µM [falling, single point]
[1]; measured here: PEO4 viability
  AC50: 24.5 µM [falling, single point]
[2]; [4]
  z-score: 0.193
[2]; [5]
  z-score: 0.744
[2]; [7]
  z-score: 2.25
[2]; [8]
  AC50: 20.9 µM [falling, single point]

## O=C(N[C@@H](c1ccccc1)[C@@H]1CCCCN1)c1cccc(C(F)(F)F)c1Cl
[1]; [3]
  AC50: 27.5 µM [falling, single point]
[1]; measured here: PEO4 viability
  AC50: 27.5 µM [falling, single point]
[2]; [4]
  z-score: 0.696
[2]; [5]
  z-score: 0.764
[2]; [7]
  z-score: -0.146
[2]; [8]
  AC50: 37.2 µM [falling, partial curve, poor fit]

## CCC(c1ccc(O)cc1)C(CC)c1ccc(O)cc1 (stereo not given)
[1]; [3]
  AC50: 24.5 µM [falling, single point]
[1]; measured here: PEO4 viability
  AC50: 24.5 µM [falling, single point]
[2]; [4]
  z-score: 0.51
[2]; [5]
  z-score: 0.91
[2]; [7]
  z-score: 0.496
[2]; [8]
  AC50: 20.9 µM [falling, single point]

## CC(=O)Nc1nc(C)c(-c2ccc(Cl)c(S(=O)(=O)NCCO)c2)s1
[1]; [3]
  AC50: 12.3 µM [falling, partial curve]
[1]; measured here: PEO4 viability
  AC50: 6.92 µM [falling, partial curve]
[2]; [4]
  z-score: -0.551
[2]; [5]
  z-score: -0.545
[2]; [7]
  z-score: -0.222
[2]; [8]
  AC50: 5.26 µM [falling, partial curve]

## O=C(CCCCCCC(=O)Nc1cccnc1)NO
[1]; [3]
  AC50: 13.8 µM [falling, partial curve]
[1]; measured here: PEO4 viability
  AC50: 19.5 µM [falling, partial curve]
[2]; [4]
  z-score: -0.404
[2]; [5]
  z-score: 0.0317
[2]; [6]
  AC50: 20.9 µM [falling, partial curve]
[2]; [7]
  z-score: 0.25
[2]; [8]
  AC50: 26.4 µM [falling, single point]

## Cn1cnc2c(F)c(Nc3ccc(Br)cc3Cl)c(C(=O)NOCCO)cc21
[1]; [3]
  AC50: 5.49 µM [falling, full curve]
[1]; measured here: PEO4 viability
  AC50: 2.19 µM [falling, partial curve]
[2]; [4]
  z-score: -1.23
[2]; [5]
  z-score: -0.188
[2]; [6]
  AC50: 0.00526 µM [falling, full curve]
[2]; [7]
  z-score: 0.65
[2]; [8]
  AC50: 14.8 µM [falling, partial curve, poor fit]

## O=C1C(Cl)=C(NCCN2CCOCC2)C(=O)c2ncccc21
[1]; [3]
  AC50: 4.36 µM [falling, full curve]
[1]; measured here: PEO4 viability
  AC50: 3.09 µM [falling, full curve]
[2]; [4]
  z-score: -0.642
[2]; [5]
  z-score: -1.11
[2]; [6]
  AC50: 3.72 µM [falling, full curve]
[2]; [7]
  z-score: -0.71
[2]; [8]
  AC50: 6.62 µM [falling, full curve]

## CCOc1cc(C(=O)Nc2ccc(Cl)c(-c3nc4ccccc4[nH]3)c2)cc(OCC)c1OCC
[1]; [3]
  AC50: 6.92 µM [falling, partial curve]
[1]; measured here: PEO4 viability
  AC50: 15.5 µM [falling, partial curve, poor fit]
[2]; [4]
  z-score: -1.26
[2]; [5]
  z-score: 0.229
[2]; [7]
  z-score: -0.209
[2]; [8]
  AC50: 11.8 µM [falling, partial curve]

## CC(C)[C@H](CO)Nc1nc(Nc2cccc(Cl)c2)c2ncn(C(C)C)c2n1
[1]; [3]
  AC50: 9.77 µM [falling, partial curve]
[1]; measured here: PEO4 viability
  AC50: 11 µM [falling, partial curve]
[2]; [4]
  z-score: -0.619
[2]; [5]
  z-score: 0.0947
[2]; [6]
  AC50: 14.8 µM [falling, partial curve]
[2]; [7]
  z-score: -1.14
[2]; [8]
  AC50: 14.8 µM [falling, partial curve]

## Cc1ccc(C(=O)Nc2ccc(CN3CCN(C)CC3)c(C(F)(F)F)c2)cc1C#Cc1cnc2cccnn12
[1]; [3]
  AC50: 1.1 µM [falling, partial curve]
[1]; measured here: PEO4 viability
  AC50: 3.09 µM [falling, full curve]
[2]; [4]
  z-score: -0.611
[2]; [5]
  z-score: -1.61
[2]; [6]
  AC50: 3.32 µM [falling, full curve]
[2]; [7]
  z-score: -0.955
[2]; [8]
  AC50: 3.32 µM [falling, partial curve]

## Cc1cc(CN2CCN(c3c(Br)cnc4nc(-c5ccc(N6CCN(C)CC6)cc5)[nH]c34)CC2)no1
[1]; [3]
  AC50: 17.4 µM [falling, single point]
[1]; measured here: PEO4 viability
  AC50: 15.5 µM [falling, partial curve]
[2]; [4]
  z-score: 0.338
[2]; [5]
  z-score: -1.06
[2]; [6]
  AC50: 7.43 µM [falling, full curve]
[2]; [7]
  z-score: -0.834
[2]; [8]
  AC50: 9.35 µM [falling, full curve]
